Assay results as given in article PMC7819943, “Rice protein-binding microarrays: a tool to detect cis-acting elements near promoter regions in rice”.
The list shows a part of the results.

The sequences below were run against T1, OsWOX13 (Oryza sativa, UniProt Q5QMM3 1-267) (assay: protein-binding microarray (RPBM); PBS, 2% BSA, 51.3 ng/ul salmon testes DNA, 50 uM zinc acetate, 200 nM TF, 25 C, 1 h; high values mean tight binding). Conditions: protein: recombinant; tags: N-terminal polyhistidine and DsRed monomer fusion (pET32a); label: CyDye5-dUTP incorporated in the synthesized complementary strand; 3' TTTTT single-stranded linker to array surface; dsDNA, one strand shown.
T1 sequence: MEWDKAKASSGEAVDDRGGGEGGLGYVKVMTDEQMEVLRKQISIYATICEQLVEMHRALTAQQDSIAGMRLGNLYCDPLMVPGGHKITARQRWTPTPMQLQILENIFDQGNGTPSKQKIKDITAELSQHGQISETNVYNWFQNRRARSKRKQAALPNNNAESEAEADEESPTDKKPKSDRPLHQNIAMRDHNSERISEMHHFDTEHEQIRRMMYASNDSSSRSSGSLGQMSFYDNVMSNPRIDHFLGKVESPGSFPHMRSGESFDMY
Method in brief: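 Per-feature fluorescence intensity (arbitrary units), read on an Axon 4000B scanner, is the binding signal. Transcription factors carrying an N-terminal polyhistidine tag and DsRed fusion were expressed in E. coli BL21-CodonPlus and purified on Ni–NTA. A custom Agilent array, made double-stranded by primer extension with Cy5-dUTP and blocked with 2% BSA, was incubated with 200 nM protein in PBS, 2% BSA, salmon testes DNA and 50 µM zinc acetate at 25 °C for 1 h and then washed.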

Point of comparison: “ATAATATAATTATGTAAGATTTTGTTGTAAAGATTTAATTCGGAGTCACCTAGTGCAG”, binding signal 8060 fluorescence intensity (a.u.). Against it:
- CAGATTAGTAGATAGATTTACTCTCTCTCTTTATTTAATCCGGAGTCACCTAGTGCAG — higher, 9890 fluorescence intensity (a.u.)
- GTAAACTGTGAGACGAATTTATTAAGCTTAATTAATCCGTCGGAGTCACCTAGTGCAG — higher, 10400 fluorescence intensity (a.u.)
- ATGATTAAAATTTAGTGCTGATCACCTTAGTCATTGAAATCGGAGTCACCTAGTGCAG — higher, 18100 fluorescence intensity (a.u.)
- TTCTGAATGTGATTGAATTAATTGGACTTGCGTTGACCTTCGGAGTCACCTAGTGCAG — higher, 59500 fluorescence intensity (a.u.)
- TCAATCGGATTGATTGTTCACTTGAATATGTTGGTTACAACGGAGTCACCTAGTGCAG — higher, 26800 fluorescence intensity (a.u.)
- CATGAATTGAAGGATGCAGATTAGACTTATTGCCAGGCTACGGAGTCACCTAGTGCAG — lower, 7720 fluorescence intensity (a.u.)
- CAATTCAATCTGAGATTTGTACACCATGACATTTTCTTCACGGAGTCACCTAGTGCAG — lower, 3560 fluorescence intensity (a.u.)
- ACAAATCAACAATTAGTAGAATTTTGCTTGTGAGGCTCATCGGAGTCACCTAGTGCAG — higher, 9370 fluorescence intensity (a.u.)
- GATGAATTAATATGTGATATATCATTCCACAAGTATGCAACGGAGTCACCTAGTGCAG — lower, 7050 fluorescence intensity (a.u.)
- ACCAAATTATCTCCCTGAATCTAATACACCTTCTTCCTCCCGGAGTCACCTAGTGCAG — higher, 15900 fluorescence intensity (a.u.)
- AATATTAGTATTAATTGATAAAAGTTCGTCACGCGAGTTACGGAGTCACCTAGTGCAG — higher, 18200 fluorescence intensity (a.u.)
- TCCCTAATGGCCTAATCTAGGCTCATTTAGGCTCGATCGCCGGAGTCACCTAGTGCAG — lower, 3210 fluorescence intensity (a.u.)
- TTATATTTAGCAATTAGCAAAAGATAGTTTCACTAACTTGCGGAGTCACCTAGTGCAG — lower, 3560 fluorescence intensity (a.u.)
- AAACTTATCAATCATGCGTTTTCTTGTTTTCGTGGATCATCGGAGTCACCTAGTGCAG — higher, 19200 fluorescence intensity (a.u.)
- AGGGAGATTAGATTAGTTAGGAGAAAACGACGAGCAAGGACGGAGTCACCTAGTGCAG — higher, 18600 fluorescence intensity (a.u.)
- ATGAAATTGTAATTCTATATGATACTTGGATGCTTATATACGGAGTCACCTAGTGCAG — lower, 5930 fluorescence intensity (a.u.)
- GGCATTCCTCTCAATCAGGCAAAAGGAGAGGGAAATATGGCGGAGTCACCTAGTGCAG — lower, 3960 fluorescence intensity (a.u.)
- GCCCTTTGTGGCTGCATCATGAACATGATAATTCACAACACGGAGTCACCTAGTGCAG — lower, 3410 fluorescence intensity (a.u.)
- AGCAAACTGACAGGCGAGGAGAATCAGGCAAATCACCTAGCGGAGTCACCTAGTGCAG — higher, 10100 fluorescence intensity (a.u.)
- GGTGCAAATTTAAGCCCGATTGAGATGACTTCGTTCTGACCGGAGTCACCTAGTGCAG — higher, 17000 fluorescence intensity (a.u.)
- TGTAAACTGGTTAGACCCGATTGTTTTGCAGACGGCCTAGCGGAGTCACCTAGTGCAG — lower, 7470 fluorescence intensity (a.u.)
- AAAACAAATTTTATTATAAATATACGTTTAACTAACTTAGCGGAGTCACCTAGTGCAG — lower, 6070 fluorescence intensity (a.u.)
- TTAGAAGCCAATTACCTTGATGGCTTAAACCGGGTGAATTCGGAGTCACCTAGTGCAG — lower, 4470 fluorescence intensity (a.u.)
- ATTAAATTTGGGCTAACTGGCCTCCACACATCCCATATAACGGAGTCACCTAGTGCAG — higher, 11000 fluorescence intensity (a.u.)
- GTTAATTTTGTTTAATTAATGGTGGAAGCAGCCATCATCACGGAGTCACCTAGTGCAG — higher, 38200 fluorescence intensity (a.u.)
- GTCGAAACGGGTAATTAACGCAGTGTGTGGGAGGGAGGAGCGGAGTCACCTAGTGCAG — lower, 7630 fluorescence intensity (a.u.)
- ACAATCTCTTCAATTATATATGTGACATCATACTTTCTATCGGAGTCACCTAGTGCAG — higher, 10600 fluorescence intensity (a.u.)
- TTCTGACTTGATTATGTGCAACGCGACTGATGCGAATGGGCGGAGTCACCTAGTGCAG — higher, 25700 fluorescence intensity (a.u.)
- CCAAAACATAAAATTAAAACTGACTTAAATACGGATGATACGGAGTCACCTAGTGCAG — lower, 3740 fluorescence intensity (a.u.)
- TGATGGGAAAACTTTAAAATTAATTTTGAATTTAAGGTTGCGGAGTCACCTAGTGCAG — lower, 4960 fluorescence intensity (a.u.)
- AAGTGATTGTCCCTACAGCTGCATATCTTTCACTCCTTTACGGAGTCACCTAGTGCAG — higher, 9690 fluorescence intensity (a.u.)
- GATAATGGTAGTGATTGGTTGAGGCTTGAGAGTAGATGTACGGAGTCACCTAGTGCAG — higher, 30600 fluorescence intensity (a.u.)
- AACTAACCACTAAATTGCTAGGATTAGTACAGGACGGGAACGGAGTCACCTAGTGCAG — lower, 6570 fluorescence intensity (a.u.)
- TATATAATATAATTTTAAATTGTAAAATTATAGAGCTAACCGGAGTCACCTAGTGCAG — higher, 16200 fluorescence intensity (a.u.)
- TTTGATTTGTATTCTGGGTTTCTGGATGTAAATTTGAATACGGAGTCACCTAGTGCAG — higher, 21500 fluorescence intensity (a.u.)
- CTATTTTAATTTTATTATTGTTATATGGTTTAGCTAAGAACGGAGTCACCTAGTGCAG — lower, 3550 fluorescence intensity (a.u.)
- TCTCGTAATAGTGTTTAATTAGATTCATTAATCCTTAATTCGGAGTCACCTAGTGCAG — higher, 9590 fluorescence intensity (a.u.)
- TGGGTATAAATTTAGTTCGTAAACTTAATAAATGTGTGCACGGAGTCACCTAGTGCAG — lower, 5080 fluorescence intensity (a.u.)
- TTTAATTAACAAGTCGTCTCCTCCTCATCCATCCACCACACGGAGTCACCTAGTGCAG — higher, 18400 fluorescence intensity (a.u.)
- TGATGATTTTAACTATCTTTTCTCTGACAAGTTCCTTCGACGGAGTCACCTAGTGCAG — higher, 11000 fluorescence intensity (a.u.)
- TAATATTTAAATTAAACCTATAATCAAGCAGATGATTTATCGGAGTCACCTAGTGCAG — higher, 8840 fluorescence intensity (a.u.)
